The values below come from PMC4751553.

The labels stand for the following.
T1: Rvs161p tagged with an internal FLAG tag inserted after amino acid 85 (wild type) (S. cerevisiae) (UniProt P25343)
T1 sequence: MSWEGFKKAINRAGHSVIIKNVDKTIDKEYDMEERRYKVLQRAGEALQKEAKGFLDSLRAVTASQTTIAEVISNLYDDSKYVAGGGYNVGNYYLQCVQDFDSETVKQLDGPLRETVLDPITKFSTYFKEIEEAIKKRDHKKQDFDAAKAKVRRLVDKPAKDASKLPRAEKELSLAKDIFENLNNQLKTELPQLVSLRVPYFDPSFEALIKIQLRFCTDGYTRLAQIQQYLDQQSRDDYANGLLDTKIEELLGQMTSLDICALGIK

B1: Fus2p^415–626 fused to GFP (domain or fragment, UniProt Q05670 415-626)
chain: MINLKMDEETEFFTLADHISKFKKVMKGLLELKKNLLKNDLSGIIDISLRRINAWKKVIECERPSGAFFAHDNLISTMCSSYIDKLHEQKNQVTILKLTELETDVMNPLERIIAHCTTVKSKLKDLQALKKDYMLFLQEKKANVRDIKRDLLGMHFQNLQNQMKRELPVFITLIHDTIECILLNYIKVFLKYLEIIAGGKKYLQKDLENMSL
B2: Fus2p^415–626 F603A fused to GFP (domain or fragment, UniProt Q05670 415-626)
chain: MINLKMDEETEFFTLADHISKFKKVMKGLLELKKNLLKNDLSGIIDISLRRINAWKKVIECERPSGAFFAHDNLISTMCSSYIDKLHEQKNQVTILKLTELETDVMNPLERIIAHCTTVKSKLKDLQALKKDYMLFLQEKKANVRDIKRDLLGMHFQNLQNQMKRELPVFITLIHDTIECILLNYIKVALKYLEIIAGGKKYLQKDLENMSL
B3: Fus2p^415–626 Y496A fused to GFP (domain or fragment, UniProt Q05670 415-626)
chain: MINLKMDEETEFFTLADHISKFKKVMKGLLELKKNLLKNDLSGIIDISLRRINAWKKVIECERPSGAFFAHDNLISTMCSSAIDKLHEQKNQVTILKLTELETDVMNPLERIIAHCTTVKSKLKDLQALKKDYMLFLQEKKANVRDIKRDLLGMHFQNLQNQMKRELPVFITLIHDTIECILLNYIKVFLKYLEIIAGGKKYLQKDLENMSL
B4: Fus2p^415–626 Y616A fused to GFP (domain or fragment, UniProt Q05670 415-626)
chain: MINLKMDEETEFFTLADHISKFKKVMKGLLELKKNLLKNDLSGIIDISLRRINAWKKVIECERPSGAFFAHDNLISTMCSSYIDKLHEQKNQVTILKLTELETDVMNPLERIIAHCTTVKSKLKDLQALKKDYMLFLQEKKANVRDIKRDLLGMHFQNLQNQMKRELPVFITLIHDTIECILLNYIKVFLKYLEIIAGGKKALQKDLENMSL
B5: Fus2p^415–626 Y606A fused to GFP (domain or fragment, UniProt Q05670 415-626)
chain: MINLKMDEETEFFTLADHISKFKKVMKGLLELKKNLLKNDLSGIIDISLRRINAWKKVIECERPSGAFFAHDNLISTMCSSYIDKLHEQKNQVTILKLTELETDVMNPLERIIAHCTTVKSKLKDLQALKKDYMLFLQEKKANVRDIKRDLLGMHFQNLQNQMKRELPVFITLIHDTIECILLNYIKVFLKALEIIAGGKKYLQKDLENMSL
B6: Fus2p^415–677 (GFP-tagged N-terminal truncation) (domain or fragment, UniProt Q05670 415-677)
chain: MINLKMDEETEFFTLADHISKFKKVMKGLLELKKNLLKNDLSGIIDISLRRINAWKKVIECERPSGAFFAHDNLISTMCSSYIDKLHEQKNQVTILKLTELETDVMNPLERIIAHCTTVKSKLKDLQALKKDYMLFLQEKKANVRDIKRDLLGMHFQNLQNQMKRELPVFITLIHDTIECILLNYIKVFLKYLEIIAGGKKYLQKDLENMSLNDSIATGQIKNLDILQCYSKSRYMTKRMVRKDWPFPGDPSGSRVVRKLFEL
B7: Fus2p^1–660 (GFP-tagged C-terminal truncation) (domain or fragment, UniProt Q05670 1-660)
chain: MFKTSYNLYDLNYPKNDSLTPIRDYKNDYFHKNDDKLPEIVRKPTRKLSKHENKLNDKKFTNKRPASLDLHSIVESLSNKKIYSPINTEIFQNVVRLNLSPQIPNSPHEGCKFYKIVQEFYLSEVEYYNNLLTANNVYRKALNSDPRFKNKLVKLDSSDELLLFGNIDTIASISKILVTAIKDLLLAKQRGKMLDANEWQKIFTKNEVQQQLYSTFDISEAFEQHLLRIKSTYTSYFVSHQKQMELFTTLRMNKNHFFNKWYEYCLKESGCIKLEDILKSPMKRLTQWIDTLETLESCYEDILSPELGLKLSPTRRKYSLFSNKLETEVSEYKSNSMYNFSLTPSEIIQSYDEDQFTHLLKPPDKQNKNICNASRQESNLDNSRVPSLLSGSSSYYSDVSGLEIVTNTSTASAEMINLKMDEETEFFTLADHISKFKKVMKGLLELKKNLLKNDLSGIIDISLRRINAWKKVIECERPSGAFFAHDNLISTMCSSYIDKLHEQKNQVTILKLTELETDVMNPLERIIAHCTTVKSKLKDLQALKKDYMLFLQEKKANVRDIKRDLLGMHFQNLQNQMKRELPVFITLIHDTIECILLNYIKVFLKYLEIIAGGKKYLQKDLENMSLNDSIATGQIKNLDILQCYSKSRYMTKRMVRKDWP
B8: Fus2p-GFP with E580 mutated to alanine (protein, UniProt Q05670 1-677)
chain: MFKTSYNLYDLNYPKNDSLTPIRDYKNDYFHKNDDKLPEIVRKPTRKLSKHENKLNDKKFTNKRPASLDLHSIVESLSNKKIYSPINTEIFQNVVRLNLSPQIPNSPHEGCKFYKIVQEFYLSEVEYYNNLLTANNVYRKALNSDPRFKNKLVKLDSSDELLLFGNIDTIASISKILVTAIKDLLLAKQRGKMLDANEWQKIFTKNEVQQQLYSTFDISEAFEQHLLRIKSTYTSYFVSHQKQMELFTTLRMNKNHFFNKWYEYCLKESGCIKLEDILKSPMKRLTQWIDTLETLESCYEDILSPELGLKLSPTRRKYSLFSNKLETEVSEYKSNSMYNFSLTPSEIIQSYDEDQFTHLLKPPDKQNKNICNASRQESNLDNSRVPSLLSGSSSYYSDVSGLEIVTNTSTASAEMINLKMDEETEFFTLADHISKFKKVMKGLLELKKNLLKNDLSGIIDISLRRINAWKKVIECERPSGAFFAHDNLISTMCSSYIDKLHEQKNQVTILKLTELETDVMNPLERIIAHCTTVKSKLKDLQALKKDYMLFLQEKKANVRDIKRDLLGMHFQNLQNQMKRALPVFITLIHDTIECILLNYIKVFLKYLEIIAGGKKYLQKDLENMSLNDSIATGQIKNLDILQCYSKSRYMTKRMVRKDWPFPGDPSGSRVVRKLFEL
B9: Fus2p-GFP with P582 mutated to alanine (protein, UniProt Q05670 1-677)
chain: MFKTSYNLYDLNYPKNDSLTPIRDYKNDYFHKNDDKLPEIVRKPTRKLSKHENKLNDKKFTNKRPASLDLHSIVESLSNKKIYSPINTEIFQNVVRLNLSPQIPNSPHEGCKFYKIVQEFYLSEVEYYNNLLTANNVYRKALNSDPRFKNKLVKLDSSDELLLFGNIDTIASISKILVTAIKDLLLAKQRGKMLDANEWQKIFTKNEVQQQLYSTFDISEAFEQHLLRIKSTYTSYFVSHQKQMELFTTLRMNKNHFFNKWYEYCLKESGCIKLEDILKSPMKRLTQWIDTLETLESCYEDILSPELGLKLSPTRRKYSLFSNKLETEVSEYKSNSMYNFSLTPSEIIQSYDEDQFTHLLKPPDKQNKNICNASRQESNLDNSRVPSLLSGSSSYYSDVSGLEIVTNTSTASAEMINLKMDEETEFFTLADHISKFKKVMKGLLELKKNLLKNDLSGIIDISLRRINAWKKVIECERPSGAFFAHDNLISTMCSSYIDKLHEQKNQVTILKLTELETDVMNPLERIIAHCTTVKSKLKDLQALKKDYMLFLQEKKANVRDIKRDLLGMHFQNLQNQMKRELAVFITLIHDTIECILLNYIKVFLKYLEIIAGGKKYLQKDLENMSLNDSIATGQIKNLDILQCYSKSRYMTKRMVRKDWPFPGDPSGSRVVRKLFEL
B10: Fus2p-GFP with L581 mutated to alanine (protein, UniProt Q05670 1-677)
chain: MFKTSYNLYDLNYPKNDSLTPIRDYKNDYFHKNDDKLPEIVRKPTRKLSKHENKLNDKKFTNKRPASLDLHSIVESLSNKKIYSPINTEIFQNVVRLNLSPQIPNSPHEGCKFYKIVQEFYLSEVEYYNNLLTANNVYRKALNSDPRFKNKLVKLDSSDELLLFGNIDTIASISKILVTAIKDLLLAKQRGKMLDANEWQKIFTKNEVQQQLYSTFDISEAFEQHLLRIKSTYTSYFVSHQKQMELFTTLRMNKNHFFNKWYEYCLKESGCIKLEDILKSPMKRLTQWIDTLETLESCYEDILSPELGLKLSPTRRKYSLFSNKLETEVSEYKSNSMYNFSLTPSEIIQSYDEDQFTHLLKPPDKQNKNICNASRQESNLDNSRVPSLLSGSSSYYSDVSGLEIVTNTSTASAEMINLKMDEETEFFTLADHISKFKKVMKGLLELKKNLLKNDLSGIIDISLRRINAWKKVIECERPSGAFFAHDNLISTMCSSYIDKLHEQKNQVTILKLTELETDVMNPLERIIAHCTTVKSKLKDLQALKKDYMLFLQEKKANVRDIKRDLLGMHFQNLQNQMKREAPVFITLIHDTIECILLNYIKVFLKYLEIIAGGKKYLQKDLENMSLNDSIATGQIKNLDILQCYSKSRYMTKRMVRKDWPFPGDPSGSRVVRKLFEL

These are yes or no findings as the source states them, for the method shown. Binding seen in cells or lysates may run through a third protein. Some binding calls cover weakened binding; strength is not graded here. Sequences can lack the tags named with a protein.

This assay addresses T1, Rvs161p tagged with an internal FLAG tag inserted after amino acid 85 (wild type) (S. cerevisiae). The assay can be described thus: co-IP; lysates of pheromone-induced S. cerevisiae (galactose medium, 10 μg/ml pheromone, 2 hr); Rvs161p-FLAG held on anti-FLAG M2 affinity gel, 1 hr at 4°, 50 mM Tris pH 7.4, 150 mM NaCl, 0.5% Triton X-100; bound Fus2p-GFP detected by western blot with anti-GFP.
With B1, the binding entry is reported as “binds”.

Take B2: the binding result is reported as “binds”. For B3, the binding entry is listed as “binds”. As for B4, the binding result was “binds”. As for B5, the binding result was “binds”. As to B6, the binding result is recorded as “binds”. B7: the binding result was “binds”.

Take B8: the binding result was “binds”.

On to B9, for which the binding entry is on record as “binds”. Regarding B10, the binding result is recorded as “binds”.
